The supplement of paper PMC9174493
Structures can show the parent of a compound that is named as a salt. The list shows a part of the results. Single values of this set are uncertain. Values with irradiation are relative to irradiated vehicle.

Assays:
A549-Dual [1] = assay: NF-kB reporter (SEAP) activity, viability-corrected, relative to vehicle (fold change vs vehicle); higher = more activation of STING-IRF / NF-kB immune response reporter; details: 10 µM
A549-Dual [2] = assay: ISRE reporter (Lucia luciferase) activity, viability-corrected, relative to vehicle (fold change vs vehicle); higher = more activation of STING-IRF / NF-kB immune response reporter; details: 10 µM
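For NF-kB reporter (SEAP) activity, viability-corrected, relative to vehicle in this document: viability correction based on the alamar blue assay, with concentrations leaving 10% survival or less dropped.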

Structure (SMILES) | NF-kB reporter (A549-Dual [1]; irradiation: 8 Gy/4 fr) | NF-kB reporter (A549-Dual [1]; irradiation: none) | ISRE reporter (A549-Dual [2]; irradiation: 8 Gy/4 fr) | ISRE reporter (A549-Dual [2]; irradiation: none)
CC(=O)OCC[N+](C)(C)C.[I-] [Acetylcholine iodide] | 0.574 | 0.93 | 0.556 | 0.612
Cc1ccc(NC(=O)c2ccc(CN3CCN(C)CC3)cc2)cc1Nc1nccc(-c2cccnc2)n1 [Imatinib (STI571)] | 0.862 | 0.855 | 0.809 | 1.08
COc1cc(O)c(C(=O)Nc2nc(C(=O)NCCN(C(C)C)C(C)C)cs2)cc1OC [Acotiamide] | 1.1 | 0.779 | 1.57 | 1.07
Cc1ccc(C)c(OCCCC(C)(C)C(=O)O)c1 [Gemfibrozil] | 0.999 | 0.927 | 1.28 | 0.954
[I-].[K+] [Potassium Iodide] | 0.823 | 0.954 | 0.894 | 0.785
CCCC(CCC)C(=O)[O][Na] [Valproic acid sodium salt (Sodium valproate)] | 0.724 | 0.961 | 0.831 | 0.764
CCC(C)C(=O)OC1CCC=C2C=CC(C)C(CCC3CC(O)CC(=O)O3)C21 (stereo not drawn) [Mevastatin] | 1.61 | 2.59 | 0.386 | 1.26
C=CC1C(OC2OC(CO)C(O)C(O)C2O)OC=C2C(=O)OCCC21O (stereo not drawn) [Swertiamarin] | 1.02 | 0.771 | 1.01 | 0.779
COCC(=O)Nc1cc(Sc2ccccc2)ccc1N=C(NC(=O)OC)NC(=O)OC [Febantel] | 0.652 | 0.855 | 0.606 | 0.778
CC1c2cccc(O)c2C(=O)C2=C(O)C3(O)C(=O)C(C(N)=O)=C(O)C(N(C)C)C3C(O)C21.O (stereo not drawn) [Doxycycline monohydrate] | 0.59 | 1.01 | 0.434 | 0.895
O=C(O)c1cc(=O)[nH]c(=O)[nH]1 [Orotic acid (6-Carboxyuracil)] | 1.14 | 0.696 | 0.754 | 0.67
OC1COC2C(O)COC12 (stereo not drawn) [Isosorbide] | 0.844 | 0.99 | 0.812 | 0.749
CC(O)C1C(=O)N2C(C(=O)OCOC(=O)C(C)(C)C)=C(SC3CN(C4=NCCS4)C3)C(C)C12 (stereo not drawn) [Tebipenem Pivoxil] | 0.87 | 1.01 | 0.837 | 0.758
CCCCC(CC)COC(=O)C(C#N)=C(c1ccccc1)c1ccccc1 (stereo not drawn) [Octocrylene] | 0.244 | 0.496 | 0.153 | 0.249
OCc1ccc(OC2OC(CO)C(O)C(O)C2O)cc1 (stereo not drawn) [Gastrodin] | 0.724 | 0.811 | 0.702 | 0.78
N[C@H](Cc1ccccc1)C(=O)O [D-Phenylalanine] | 1.47 | 0.969 | 1.52 | 1.04
C=C1C(=O)OC2/C=C(\C)CC/C=C(\C)CCC12 (stereo not drawn) [Costunolide] | 0.592 | 0.449 | 0.187 | 0.327
O=C1OCCN1/N=C/c1ccc([N+](=O)[O-])o1 [Furazolidone] | 0.962 | 1.03 | 0.916 | 0.861
CC1CCC(C(C)C)C(O)C1 (single isomer, unassigned; (-)) [(-)-Menthol] | 0.86 | 1.35 | 0.954 | 0.762
CC(C)(C)N.CCCC(NC(C)C(=O)N1C(C(=O)O)CC2CCCCC21)C(=O)OCC (stereo not drawn) [Perindopril Erbumine] | 0.977 | 1.44 | 0.798 | 0.928
O.O.O.O.[Li][O]C(=O)CC(O)(CC(=O)[O][Li])C(=O)[O][Li] [Citric acid trilithium salt tetrahydrate] | 0.848 | 0.612 | 0.84 | 0.673
CN(Cc1cc(Br)cc(Br)c1N)C1CCCCC1 [Bromhexine] | 0.545 | 0.955 | 0.657 | 0.8
CN1CCN(CCCN2c3ccccc3Sc3ccc(Cl)cc32)CC1.O=C(O)/C=C\C(=O)O.O=C(O)/C=C\C(=O)O [Prochlorperazine dimaleate salt] | 0.516 | 1.31 | 0.339 | 1.13
CC1=CC(O)CC(C)(C)C1/C=C/C(C)=C/C=C/C(C)=C/C=C/C=C(C)/C=C/C=C(C)/C=C/C1=C(C)CC(O)CC1(C)C (stereo not drawn) [lutein] | 0.387 | 0.501 | 0.503 | 0.544
CN(C(=O)CN(CCO)CC(=O)N(C)C(C)(C)Cc1ccccc1)C(C)(C)Cc1ccccc1 [Oxethazaine] | 0.391 | 0.447 | 0.282 | 0.316
COCCc1ccc(OCC(O)CNC(C)C)cc1.COCCc1ccc(OCC(O)CNC(C)C)cc1.O=C(O)CCC(=O)O (stereo not drawn) [Metroprolol succinate] | 0.985 | 1.66 | 0.691 | 0.731
CCC1(c2ccccc2)C(=O)NCNC1=O [Primidone] | 0.609 | 0.833 | 0.64 | 0.776
